Results published in PubChem BioAssay AID624417 (National Center for Advancing Translational Sciences (NCATS), 2012).
About 6,400 (1.6%) of roughly 410,000 compounds were called active. Inconclusive results, whose numbers are uncertain, are shown with a selection of clear calls. Calls come from the whole dose curve; as a rule, active = well fitted inhibition curve with a large enough effect; inconclusive = small, poorly fitted or top-dose-only effect; inactive = no such curve, though single readings can be large or run the other way. Potencies beside an inconclusive call are fits to weak or partial responses and may not hold up.

target: Glucagon-like peptide 1 receptor (Homo sapiens) (UniProt P43220); experiment: qHTS of GLP-1 Receptor Inverse Agonists (Inhibition Mode); conditions: HEK293 GLP-1R CRE-luciferase, luminescence, 24 h, GLP-1R form is constitutively active; activity change, negative = inhibition: at 38.3 µM (top of the series) unless noted; note: nearly all actives have a fitted effect of over 55% in size
Chain of UniProt P43220 (P43220 whole entry, looked up): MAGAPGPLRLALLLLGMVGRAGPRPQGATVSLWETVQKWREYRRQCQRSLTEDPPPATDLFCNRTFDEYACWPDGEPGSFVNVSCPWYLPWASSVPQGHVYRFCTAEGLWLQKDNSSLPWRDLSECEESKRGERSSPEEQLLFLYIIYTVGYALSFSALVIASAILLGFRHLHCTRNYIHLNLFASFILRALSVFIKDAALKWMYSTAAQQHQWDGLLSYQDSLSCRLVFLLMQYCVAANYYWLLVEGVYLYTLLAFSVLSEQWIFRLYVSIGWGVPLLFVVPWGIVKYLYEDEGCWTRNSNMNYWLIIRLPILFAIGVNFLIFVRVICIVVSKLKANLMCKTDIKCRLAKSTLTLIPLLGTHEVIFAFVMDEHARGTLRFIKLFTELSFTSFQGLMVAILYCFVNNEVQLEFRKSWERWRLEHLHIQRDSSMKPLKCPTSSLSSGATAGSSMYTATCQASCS
Method in brief: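 Cells are plated, allowed 12 hours at 37 deg C, then treated with compounds for 24 hr before luciferase detection reagent is added and luminescence is read after 12 min at room temperature. The HEK293 line carries constitutively active GLP-1R with a cAMP-responsive reporter.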
% is set by controls: 0 for no effect and ±100 for the full control effect; potency is the fitted concentration of half-maximal effect; tags give direction and shape of the fitted curve.

Potency, inactive:
COC(=O)c1c(C)oc2c1cc(NS(=O)(=O)c1c(C)cc(C)cc1C)c1ccccc12
CC(Oc1ccccc1)C(=O)Nc1cc(Cl)ccc1-n1cncn1 (stereo not given)
COC(=O)c1cc2sc(C)cc2n1Cc1ccc(F)cc1Cl
CCOc1ccc2nc(N(Cc3cccnc3)C(=O)c3ccc4c(c3)OCCO4)sc2c1
COc1cccc(NC(=O)COC(=O)c2c(F)cccc2Cl)c1
CCC(C)(C)n1nnnc1C(c1ccc(O)c(OC)c1)N1CCc2ccccc2C1 (stereo not given)
CCOC(=O)NC(NCc1ccccc1)(C(F)(F)F)C(F)(F)F
CCOc1ccccc1NC(=O)Cn1c(=O)n(-c2ccc(C)c(C)c2)c(=O)c2c(C)c(C(=O)N(C)C)sc21

Potency, inconclusive:
Nn1c(SCc2cccc(Oc3ccccc3)c2)nnc1C(F)(F)F 11.2 µM [inhibitor, partial curve, poor fit]
CC(=O)N1c2ccc(S(=O)(=O)N3CCC(C(=O)N4CCN(c5cccc(C(F)(F)F)c5)CC4)CC3)cc2CC1C (stereo not given) 12.6 µM [inhibitor, single point]
CN(C)C(CNC(=O)c1cccc(S(=O)(=O)Nc2ccc(SC(F)F)cc2)c1)c1ccccc1 (stereo not given) 10 µM [inhibitor, single point]
CC1(C(=O)Nc2cccc(OC(F)(F)F)c2)Cc2c(-c3ccc4c(c3)OCO4)ccnc2O1 (stereo not given) 7.94 µM [inhibitor, partial curve, poor fit]
CCOc1ccc(OCC)c(NC(=O)CC2Oc3ccc(C)cc3NC2=O)c1 (stereo not given) 3.98 µM [inhibitor, full curve, poor fit]
O=S(=O)(c1ccc(Cl)cc1)c1nc(-c2ccccc2Br)oc1N1CCOCC1 11.2 µM [inhibitor, partial curve, poor fit]
Fc1ccccc1C1c2[nH]c3ccccc3c2CCN1Cc1cccn1-c1ncccn1 (stereo not given) 11.2 µM [inhibitor, partial curve, poor fit]
O=C(CSc1ccccn1)C12CC3CC(CC(C3)C1)C2 8.91 µM [inhibitor, partial curve, poor fit]
C=CCOC(=O)/C(=C\c1cccc2ccccc12)NC(=O)c1ccccc1 3.98 µM [inhibitor, partial curve, poor fit]
C=Cc1ccc(CN2CCCN(Cc3ccc(F)cc3)S2(=O)=O)cc1 14.1 µM [inhibitor, single point]
CCc1cc2c(SCC(=O)c3ccccc3)ncnc2s1 10 µM [inhibitor, single point]
COc1ccc(C(CNC(=O)c2cncc(Br)c2)N(C)C)cc1 (stereo not given) 12.6 µM [inhibitor, single point]
Cc1ccc(NC(=O)CCc2c(C)nn(-c3ccc(N4CCCCC4)nn3)c2C)cc1F 20 µM [inhibitor, single point]
O=C(c1cc(COc2c(F)cccc2F)on1)N1CC[C@@H]2CCCC[C@H]2C1 14.1 µM [inhibitor, single point]
Cn1cc(C2NC(=O)c3ccccc3N2)c2ccccc21 (stereo not given) 2 µM [inhibitor, full curve]
CC(C)(CC(=O)c1ccccc1)CC(=O)c1ccccc1 28.2 µM [inhibitor, single point]
CCC(=O)NCc1c(C)c(C)n(Cc2ccccc2)c1-n1cccc1 14.1 µM [inhibitor, partial curve, poor fit]
CCN1CCN(Cc2ccc(NC(=O)Nc3ccccc3OC)cc2)CC1 10 µM [inhibitor, single point]
Cc1cc(NC(=O)CCC(=O)N(CC(=O)NC2CCCC2)c2ccc(C(C)C)cc2)no1 10 µM [inhibitor, partial curve, poor fit]
COc1ccc(CNC(=O)C[C@H]2C(=O)N(c3ccccc3)C[C@@H]2Cc2ccccc2)cc1 28.2 µM [inhibitor, single point]
CCOC(=O)[C@@H]1[C@H]2COc3ccc(Br)cc3[C@@H]2N2C(=O)N(c3ccc(C(F)(F)F)cc3)C(=O)[C@]12C 5.01 µM [inhibitor, full curve]
CC(Nc1ncnc2c1cnn2-c1cccc(Cl)c1)c1ccccc1 (stereo not given) 28.2 µM [inhibitor, single point]
CCCCSc1ncnc2c1ncn2C1CCCCO1 (stereo not given) 11.2 µM [inhibitor, single point]
Cc1ccc(NC(=O)CN2CCc3ccccc3C2)cc1C 25.1 µM [inhibitor, single point]
CCN(CC)c1ccc(NC(=S)Nc2ccc(F)cc2)cc1 22.4 µM [inhibitor, single point]
O=C(NCCN1CCC(n2c(=O)[nH]c3ccccc32)CC1)c1cccc(Cl)c1 10 µM [inhibitor, partial curve]
Cc1cc2c(cc1C)NC(CC(=O)Nc1cccc(C)c1C)C(=O)N2 (stereo not given) 28.2 µM [inhibitor, single point]
Cc1ccc(S(=O)(=O)NCCC(=O)N2CCN(c3cccc(Cl)c3)CC2)cc1C 28.2 µM [inhibitor, single point]
O=C(NC1CCCCC1)c1ccc(-c2ccccc2F)o1 11.2 µM [inhibitor, single point]
O=C(COC(=O)c1cc[n+]([O-])cc1)Nc1ccc(Cl)c(C(F)(F)F)c1 11.2 µM [inhibitor, partial curve, poor fit]

Potency, active:
COc1ccc2c(c1)CCc1c(C(=O)Nc3c(C)nn(Cc4ccccc4Cl)c3C)noc1-2 10 µM

Activity change, negative = inhibition, inconclusive:
O=C1CC(c2ccccc2)=NN1c1ccc([N+](=O)[O-])cc1 -37.7% [inhibitor] [at 7.66 µM]
